From the supplement of paper PMC4466236
Over roughly 33,000 sequences, “E-score (dimensionless, -0.5 to 0.5)” has its median near -0.058; the highest 2% begin near 0.35. Some of the results follow.

test system: MvaT; assay: PBM 8-mer E-score (mean of HK and ME arrays) (E-score (dimensionless, -0.5 to 0.5)); higher = stronger relative binding preference; most listed sequences are background and not binding sites
How it was run: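 Reported values are rank-based E-scores, taken as the mean of two universal arrays and parsed with a custom script. Each 8-mer score falls between -0.5 and 0.5. The arrays, ME and HK, were double-stranded 60-mers with a constant 25-mer primer region and a variable 35-mer region covering all 8-mers. They were probed, by an earlier protocol, with full-length P. aeruginosa MvaT carrying an N-terminal glutathione S-transferase fusion.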

| Sequence | PBM 8-mer E-score |
| --- | --- |
| AACAACTC | 0.185 |
| CGCCCTAC | -0.195 |
| GCGTGTAA | -0.0288 |
| CGACGTAC | -0.0495 |
| CGTAGACG | -0.272 |
| ACGTCGAG | -0.102 |
| GAACGTGC | -0.149 |
| GAGAGTGC | -0.148 |
| ATATGAGA | 0.123 |
| CCCATTAG | 0.0585 |
| ACTAATTG | 0.308 |
| GGCAAACA | -0.0281 |
| CCAGATCC | -0.268 |
| CGTGCAAA | 0.0455 |
| GTATGCAA | 0.0565 |
| GAATTGGC | -0.101 |
| ATAAACAT | 0.342 |
| TAACCTAA | 0.212 |
| CTGAAGAA | 0.0648 |
| CTCACCAC | -0.026 |
| ACCGTGTA | -0.0272 |
| CAATCCAC | -0.103 |
| TAAGCTGA | -0.0825 |
| AACCGGTA | 0.0271 |
| TAAATTCA | 0.3 |

| Sequence | PBM 8-mer E-score |
| --- | --- |
| CCACCAGA | -0.233 |
| GTACATCA | -0.0193 |
| ATCGAATA | 0.207 |
| AGCTGCCT | -0.216 |
| TCATATAA | 0.379 |
| AGCTTTAG | -0.126 |
| CCTTGGGC | -0.134 |
| CTCTAGAA | 0.101 |
| GGGAGAGA | -0.14 |
| CAGTTCAG | -0.0792 |
| AAAATTAC | 0.149 |
| ATGGCCAC | -0.162 |
| TAAGAGGA | 0.00738 |
| ATGAAAAT | 0.243 |
| GTTGAAAA | 0.0872 |
| AAGGCGAG | -0.313 |
| CCGTCTAA | 0.0692 |
| CTGTAAGA | -0.0539 |
| AACAAACC | 0.109 |
| CGACTGCA | -0.158 |
| AACCGACT | 0.00127 |
| ACAGATGC | -0.179 |
| AGTGACTA | 0.0906 |
| TCAGTAAA | 0.118 |
| CCTCATAC | -0.0935 |

| Sequence | PBM 8-mer E-score |
| --- | --- |
| AGGCCATG | -0.221 |
| GCAAAAAC | -0.0305 |
| CTCAAGAC | -0.214 |
| ACCTATAG | 0.0154 |
| CATCTCCC | -0.307 |
| CGCCGCGA | -0.258 |
| GTTAACTA | 0.362 |
| CGTCCCAA | -0.102 |
| CTCACCCC | -0.215 |
| TACACCAA | 0.134 |
| CCACAGGA | -0.171 |
| AAGAGCCC | -0.234 |
| CCAAAACG | -0.114 |
| ATGTCGGC | -0.0413 |
| TACCAAGA | -0.0377 |
| CCCCAGCA | -0.305 |
| GCAGTTGA | -0.0295 |
| AACTGCCC | -0.0879 |
| ACAGTTTC | 0.0803 |
| AGGCCACT | -0.147 |
| TCGCAGAA | -0.179 |
| AATAGTCT | 0.268 |
| ATTCCCTA | 0.0104 |
| AAGCGCCA | -0.182 |
| CCTTTTCA | -0.00742 |

| Sequence | PBM 8-mer E-score |
| --- | --- |
| CTGGCGTC | -0.306 |
| CACCCGAC | -0.267 |
| ACTTCAAT | 0.317 |
| ATTGTTGC | 0.225 |
| AGTCCAAA | 0.126 |
| CAGGCTCA | -0.229 |
| GGTGATCA | -0.275 |
| GGTTATGA | -0.0507 |
| AAGCTCCC | -0.32 |
| CGTACACC | -0.0808 |
| GCCCCGAC | -0.173 |
| ACGGAGTA | 0.0493 |
| AGACATTG | -0.0117 |
| TACTGAAA | 0.0856 |
| GGCTAAGA | -0.00396 |
| AGCGCCGG | -0.31 |
| AACCAGTT | 0.0597 |
| AGCCTCGG | -0.155 |
| ACGCGCGT | -0.0224 |
| AAAGGGCT | -0.216 |
| AGATGTCA | 0.0185 |
| ACGTACAC | 0.107 |
| ACGCCGTC | -0.242 |
| AAGAACTG | 0.0302 |
| ACTAATGC | 0.085 |

| Sequence | PBM 8-mer E-score |
| --- | --- |
| GGCGTCGA | -0.261 |
| ATACGCAC | -0.017 |
| ATCGTCCA | -0.0468 |
| AGCCTGAT | -0.106 |
| CTCAGACA | -0.261 |
| AATCATTG | 0.116 |
| TGTGGGAA | 0.0206 |
| CCGACCTC | -0.313 |
| AAAATGGG | -0.0336 |
| CACATTAC | 0.16 |
| AGCTCGGC | -0.213 |
| AGCCACTA | -0.0885 |
| CGGTCATC | -0.0971 |
| GCTACATA | 0.04 |
| CCACGACC | -0.119 |
| AGCTACTC | -0.223 |
| GAGAAGGA | -0.221 |
| CACTATAG | 0.196 |
| ACGTGCGG | -0.0576 |
| CTCTTCTA | 0.0459 |
| ATATCCTA | 0.156 |
| GAATCTCA | -0.126 |
| CTCAGATC | -0.108 |
| GAAGGTAA | -0.101 |
| GGATTTAC | -0.037 |

| Sequence | PBM 8-mer E-score |
| --- | --- |
| CCCCACGG | -0.322 |
| CAGTCGGA | -0.178 |
| AGATCTAC | -0.138 |
| ATAGATGC | 0.067 |
| GCGGGCGA | -0.301 |
| AAGTTTTG | 0.238 |
| CGAAACGA | -0.00232 |
| GACCCGTA | -0.277 |
| CTGAGTGC | -0.16 |
| CTACTAAA | 0.168 |
| CTTGGTTA | 0.0108 |
| CCGGGCCA | -0.174 |
| ATAAATAC | 0.362 |
| GTAAAGCA | 0.0554 |
| AAGTAATG | 0.276 |
| AAGCGATA | -0.00776 |
| AATGCTAG | 0.0259 |
| ATGTGGCA | 0.0656 |
| AGTTCGCC | 0.0954 |
| CGGACGGC | -0.197 |
| CAACTCTA | 0.175 |
| CGGAGATC | -0.221 |
| CGCTACAA | -0.000717 |
| GTCAATAA | 0.189 |
| TATGATGA | 0.115 |

| Sequence | PBM 8-mer E-score |
| --- | --- |
| ACCTTATG | -0.0162 |
| ACAAAACA | 0.222 |
| CCGGACGC | -0.242 |
| AGTGGTGA | 0.108 |
| AGCCATAG | -0.0864 |
| AGTTGCAG | 0.0464 |
| GTTAGTAA | 0.127 |
| AAGACTTG | -0.00277 |
| ATGTAGTG | 0.0237 |
| GTTATAAA | 0.345 |
| CTCACAGA | -0.14 |
| ACTTGATA | 0.174 |
| CTGCGCCC | -0.118 |
| CCTTTACC | -0.161 |
| CGATTGCG | -0.0898 |
| AAAGCGCA | -0.0373 |
| CTAAAATA | 0.353 |
| CGACTCCG | -0.255 |
| TGGGCAAA | -0.0461 |
| AAATAATC | 0.301 |
| ACGCGTTC | -0.184 |
| CCACGAAA | -0.117 |
| CCCTCCCG | -0.222 |
| GAGCCATC | -0.139 |
| ACTCGGCC | -0.00469 |

| Sequence | PBM 8-mer E-score |
| --- | --- |
| CATGCCAA | -0.101 |
| ATGAAAGA | 0.188 |
| AACTCCCG | -0.0446 |
| TTACTCAA | 0.152 |
| ATGCATAC | 0.0757 |
| CTTCCCCC | -0.176 |
| CCGAGAAC | -0.116 |
| ACGCTGCA | -0.0582 |
| GCAAATCA | 0.104 |
| ATATCGTC | 0.0997 |
| AACCTCTT | 0.00513 |
| AACGCTAC | -0.125 |
| AGGATCCA | -0.259 |
| AAGCTCAT | -0.0238 |
| CCTCACCC | -0.165 |
| GCTCTCAC | -0.206 |
| GCTACCGA | -0.234 |
| CGCCTGCC | -0.0816 |
| AAGTCCGC | 0.0463 |
| CTCCGCTA | -0.115 |
| AGGTCCGG | -0.246 |
| ACAGAACG | -0.148 |
| CCCCTGTC | -0.221 |
| CCGTTTTC | -0.095 |
| ATAATATG | 0.435 |

| Sequence | PBM 8-mer E-score |
| --- | --- |
| AGGCCTAA | -0.204 |
| AACTCCCA | -0.103 |
| ACACCTTG | -0.0951 |
| CACGAAAA | 0.0841 |
| GATCCCTA | -0.173 |
| GTCGGTGA | -0.0748 |
| ACCTTGTA | 0.0343 |
| AAGCTGCC | -0.31 |
| AATCCTCA | -0.115 |
| CAAAACTA | 0.201 |
| GACGCACC | -0.0485 |
| CGCTATCA | -0.149 |
| GGATCGAA | -0.204 |
| CAACCGTA | -0.054 |
| AAATAGCG | 0.201 |
| CTGTAATA | 0.36 |
| ATAAAAAT | 0.293 |
| CCCGGGGA | -0.299 |
| CTCGAGCC | -0.282 |
